The other results are listed elsewhere or left out.
B1: PhoQ; a variant is named by its letters at X, in order, P23837 (parent)
chain: MKKLLRLFFPLSLRVRFLLATAAVVLVLSLAYGMVALIGYSVSFDKTTFRLLRGESNLFYTLAKWENNKLHVELPENIDKQSPTMTLIYDENGQLLWAQRDVPWLMKMIQPDWLKSNGFHEIEADVNDTSLLLSGDHSIQQQLQEVREDDDDAEMTHSVAVNVYPATSRMPKLTIVVVDTIPVELKSSYMVWSWFIYVLSANLLLVIPLLWVAAWWSLRPIEALAKEVRELEEHNRELLNPATTRELTSLVRNLNRLLKSERERYDKYRTTLTDLTHSLKTPLXXLQXXLRSLRSEKMSVSDAEPVMLEQISRISQQIGYYLHRASMRGGTLLSRELHPVAPLLDNLTSALNKVYQRKGVNISLDISPEISFVGEQNDFVEVMGNVLDNACKYCLEFVEISARQTDEHLYIVVEDDGPGIPLSKREVIFDRGQRVDTLRPGQGVGLAVAREITEQYEGKIVAGESMLGGARMEVIFGRQHSAPKDE

Variants of: B1
Assay: enrichment ratio after two sorts for PhoP signalling (ratio (wild type AVST 3.29)); higher = more functional
Conditions: with PhoP (E. coli)

| Variant | enrichment ratio |
| --- | --- |
| PQHN | ≤ 0.25 |
| VHSC | ≤ 0.25 |
| QLAW | ≤ 0.25 |
| FAIA | ≤ 0.25 |
| TQGI | 8.61 |
| MVCL | 4.31 |
| QSIL | ≤ 0.25 |
| FDRF | ≤ 0.25 |
| PNFK | ≤ 0.25 |
| NMPA | ≤ 0.25 |
| RCRK | ≤ 0.25 |
| QAPR | ≤ 0.25 |
| SAPF | ≤ 0.25 |
| HTTA | ≤ 0.25 |
| MKPV | ≤ 0.25 |
| PCKD | ≤ 0.25 |
| NYSA | ≤ 0.25 |
| TCDV | ≤ 0.25 |
| SIFP | ≤ 0.25 |
| DLGN | ≤ 0.25 |
| SRHW | ≤ 0.25 |
| GTPY | ≤ 0.25 |
| GIMM | 17.3 |
| YKEP | ≤ 0.25 |

| Variant | enrichment ratio |
| --- | --- |
| WVRP | ≤ 0.25 |
| YRAI | ≤ 0.25 |
| EYLY | ≤ 0.25 |
| RFLE | ≤ 0.25 |
| QWFM | ≤ 0.25 |
| FWFH | ≤ 0.25 |
| NKGR | ≤ 0.25 |
| LNMP | ≤ 0.25 |
| KRFP | ≤ 0.25 |
| DQDA | ≤ 0.25 |
| KQDS | ≤ 0.25 |
| VRKT | ≤ 0.25 |
| QKSQ | ≤ 0.25 |
| SFNC | ≤ 0.25 |
| RIDL | ≤ 0.25 |
| TDMT | 10.8 |
| YVFD | ≤ 0.25 |
| MRIM | ≤ 0.25 |
| LEWW | ≤ 0.25 |
| KILC | ≤ 0.25 |
| ERQQ | ≤ 0.25 |
| VHHA | ≤ 0.25 |
| WFDC | ≤ 0.25 |
| EVHE | ≤ 0.25 |

| Variant | enrichment ratio |
| --- | --- |
| LEDI | ≤ 0.25 |
| MNEF | ≤ 0.25 |
| CITP | ≤ 0.25 |
| AWIF | ≤ 0.25 |
| HDNA | ≤ 0.25 |
| IFGK | ≤ 0.25 |
| NQEP | ≤ 0.25 |
| DYSQ | ≤ 0.25 |
| VKKN | ≤ 0.25 |
| WIGS | ≤ 0.25 |
| PHCY | ≤ 0.25 |
| ECFQ | ≤ 0.25 |
| GAIW | ≤ 0.25 |
| FEMH | ≤ 0.25 |
| EVSK | ≤ 0.25 |
| STGV | 13.4 |
| GFHR | ≤ 0.25 |
| ERDV | ≤ 0.25 |
| MPDR | ≤ 0.25 |
| WQYY | ≤ 0.25 |
| QDNI | ≤ 0.25 |
| QVWM | 6.65 |
| EQHE | ≤ 0.25 |
| QESH | 2 |

| Variant | enrichment ratio |
| --- | --- |
| SMVY | 6.01 |
| CNSL | ≤ 0.25 |
| PIQC | ≤ 0.25 |
| FAPR | ≤ 0.25 |
| ASEI | ≤ 0.25 |
| QVPM | ≤ 0.25 |
| IFQE | ≤ 0.25 |
| VVYD | ≤ 0.25 |
| NKVS | ≤ 0.25 |
| PLGA | ≤ 0.25 |
| EVTK | ≤ 0.25 |
| DVGV | ≤ 0.25 |
| APQG | ≤ 0.25 |
| PSCE | ≤ 0.25 |
| IPQQ | ≤ 0.25 |
| DREY | ≤ 0.25 |
| TDYY | ≤ 0.25 |
| VDWW | ≤ 0.25 |
| FFRR | ≤ 0.25 |
| KMFA | ≤ 0.25 |
| YDHY | ≤ 0.25 |
| KTHM | ≤ 0.25 |
| VWRP | ≤ 0.25 |
| ALLT | 0.993 |

| Variant | enrichment ratio |
| --- | --- |
| DPSW | ≤ 0.25 |
| ITWD | ≤ 0.25 |
| GKAR | ≤ 0.25 |
| RNDF | ≤ 0.25 |
| WSTG | ≤ 0.25 |
| APVP | ≤ 0.25 |
| LRHL | ≤ 0.25 |
| GAID | ≤ 0.25 |
| MKNT | ≤ 0.25 |
| KDDD | ≤ 0.25 |
| WENQ | ≤ 0.25 |
| YISR | ≤ 0.25 |
| THQI | 24.1 |
| YNMW | ≤ 0.25 |
| IEDG | ≤ 0.25 |
| IRKV | ≤ 0.25 |
| KQIG | ≤ 0.25 |
| DQIV | ≤ 0.25 |
| SMVP | ≤ 0.25 |
| YLNL | ≤ 0.25 |
| YIYM | ≤ 0.25 |
| YRQS | ≤ 0.25 |
| RCWV | ≤ 0.25 |
| NNEM | ≤ 0.25 |

| Variant | enrichment ratio |
| --- | --- |
| KCWM | ≤ 0.25 |
| HGVD | ≤ 0.25 |
| LYNW | ≤ 0.25 |
| IGQL | ≤ 0.25 |
| THYY | ≤ 0.25 |
| GPMM | ≤ 0.25 |
| PDYP | ≤ 0.25 |
| AYRW | ≤ 0.25 |
| ENHG | ≤ 0.25 |
| KLPG | ≤ 0.25 |
| ANWG | ≤ 0.25 |
| DCGI | ≤ 0.25 |
| MSDY | ≤ 0.25 |
| KRPS | ≤ 0.25 |
| AACF | 7.35 |
| ARVA | ≤ 0.25 |
| TCRM | 3.18 |
| PIVP | ≤ 0.25 |
| QQSR | ≤ 0.25 |
| ISSQ | ≤ 0.25 |
| GMDF | ≤ 0.25 |
| DTLP | ≤ 0.25 |
| HNKV | ≤ 0.25 |
| KDFS | ≤ 0.25 |

| Variant | enrichment ratio |
| --- | --- |
| AKWS | ≤ 0.25 |
| AKFH | ≤ 0.25 |
| KVHL | ≤ 0.25 |
| ETRP | ≤ 0.25 |
| VRKL | ≤ 0.25 |
| ECEI | ≤ 0.25 |
| VYPT | ≤ 0.25 |
| VMSW | ≤ 0.25 |
| LNLN | ≤ 0.25 |
| TCGQ | ≤ 0.25 |
| DRAP | ≤ 0.25 |
| AAMY | ≤ 0.25 |
| EVMG | ≤ 0.25 |
| AAYG | ≤ 0.25 |
| NNMR | ≤ 0.25 |
| EEKS | ≤ 0.25 |
| AGHK | ≤ 0.25 |
| MHSI | ≤ 0.25 |
| VNVC | ≤ 0.25 |
| MKTL | ≤ 0.25 |
| YERP | ≤ 0.25 |
| GDYI | ≤ 0.25 |
| FCIM | ≤ 0.25 |
| RQKV | ≤ 0.25 |

| Variant | enrichment ratio |
| --- | --- |
| WDHY | ≤ 0.25 |
| YPKA | ≤ 0.25 |
| RMTP | ≤ 0.25 |
| AMKQ | ≤ 0.25 |
| VNSR | ≤ 0.25 |
| IAPS | ≤ 0.25 |
| FCTL | ≤ 0.25 |
| VISD | ≤ 0.25 |
| YAMN | ≤ 0.25 |
| KEGD | ≤ 0.25 |
| EVLW | ≤ 0.25 |
| VKME | ≤ 0.25 |
| VYKK | ≤ 0.25 |
| RDSD | ≤ 0.25 |
| FIFM | ≤ 0.25 |
| DCKT | ≤ 0.25 |
| LRIS | ≤ 0.25 |
| LIFN | ≤ 0.25 |
| TSAW | ≤ 0.25 |
| GGFL | ≤ 0.25 |
| DTPS | ≤ 0.25 |
| YMPG | ≤ 0.25 |
| NSMH | ≤ 0.25 |
| DCHA | ≤ 0.25 |

| Variant | enrichment ratio |
| --- | --- |
| LPLF | ≤ 0.25 |
| SEAT | 13.6 |
| RMRG | ≤ 0.25 |
| YSDS | ≤ 0.25 |
| DKTV | ≤ 0.25 |
| PDEV | ≤ 0.25 |
| WHMA | ≤ 0.25 |
| GDFR | ≤ 0.25 |
| RHNY | ≤ 0.25 |
| NSWY | ≤ 0.25 |
| EMFM | ≤ 0.25 |
| AYVR | ≤ 0.25 |
| NFIL | ≤ 0.25 |
| PRDL | ≤ 0.25 |
| AKRP | ≤ 0.25 |
| QFLW | ≤ 0.25 |
| GQHI | ≤ 0.25 |
| KSGN | ≤ 0.25 |
| MHYQ | ≤ 0.25 |
| YYWW | ≤ 0.25 |
| WYCG | ≤ 0.25 |
| MWYT | ≤ 0.25 |
| VFKP | ≤ 0.25 |
| NIVG | ≤ 0.25 |

| Variant | enrichment ratio |
| --- | --- |
| FVRP | ≤ 0.25 |
| KSND | ≤ 0.25 |
| SPNC | ≤ 0.25 |
| ELHL | ≤ 0.25 |
| KFNV | 1.06 |
| PISM | ≤ 0.25 |
| YDPL | ≤ 0.25 |
| NWQV | ≤ 0.25 |
| QNWL | ≤ 0.25 |
| EDIE | ≤ 0.25 |
| HFVM | ≤ 0.25 |
| IYYA | ≤ 0.25 |
| MRVG | ≤ 0.25 |
| NRTV | ≤ 0.25 |
| VGQL | ≤ 0.25 |
| LSAV | ≤ 0.25 |
| YIVW | ≤ 0.25 |
| VEMV | 27.4 |
| RHYV | ≤ 0.25 |
| GQHW | ≤ 0.25 |
| LCAR | 0.326 |
| TQPR | ≤ 0.25 |
| TPCF | ≤ 0.25 |
| IWQH | ≤ 0.25 |

| Variant | enrichment ratio |
| --- | --- |
| MAFT | 2.38 |
| HYAI | ≤ 0.25 |
| PIEP | ≤ 0.25 |
| VKRM | ≤ 0.25 |
| PGIW | ≤ 0.25 |
| RLLK | ≤ 0.25 |
| QRRK | ≤ 0.25 |
| AGFN | ≤ 0.25 |
| TFKE | ≤ 0.25 |
| MFNW | ≤ 0.25 |
| KLMW | ≤ 0.25 |
| HDDH | ≤ 0.25 |
| KQDI | ≤ 0.25 |
| RPVR | ≤ 0.25 |
| LYQQ | 2.07 |
| EMPT | ≤ 0.25 |
| DCIV | ≤ 0.25 |
| TNLP | ≤ 0.25 |
| SISQ | 8.99 |
| SRFL | ≤ 0.25 |
| QNML | ≤ 0.25 |
| MEIY | ≤ 0.25 |
| TFLY | ≤ 0.25 |
| LCHN | 0.447 |

| Variant | enrichment ratio |
| --- | --- |
| RHHQ | ≤ 0.25 |
| KKYI | ≤ 0.25 |
| VMMQ | ≤ 0.25 |
| LICE | ≤ 0.25 |
| QFIM | ≤ 0.25 |
| PIYF | ≤ 0.25 |
| ESYP | ≤ 0.25 |
| ARIT | ≤ 0.25 |
| GGPA | ≤ 0.25 |
| WQMS | ≤ 0.25 |
| PDCY | ≤ 0.25 |
| AMLM | 8.51 |
| WSYQ | ≤ 0.25 |
| TWSI | ≤ 0.25 |
| CTIM | ≤ 0.25 |
| SQLN | 9.86 |
| PAEA | ≤ 0.25 |
| GGRP | ≤ 0.25 |
| MAFF | 3.53 |
| WCPY | ≤ 0.25 |
| DAPF | ≤ 0.25 |
| MYYK | ≤ 0.25 |
| AFSE | ≤ 0.25 |
| WHDS | ≤ 0.25 |

| Variant | enrichment ratio |
| --- | --- |
| HAIP | ≤ 0.25 |
| TDMY | 6.89 |
| TPGA | ≤ 0.25 |
| PSIT | ≤ 0.25 |
| YMSD | ≤ 0.25 |
| RGIM | ≤ 0.25 |
| EPVQ | ≤ 0.25 |
| ETRI | ≤ 0.25 |
| KPMP | ≤ 0.25 |
| PEVK | ≤ 0.25 |
| PMCS | ≤ 0.25 |
| PPGQ | ≤ 0.25 |
| WFIW | ≤ 0.25 |
| MSPP | ≤ 0.25 |
| HGSE | ≤ 0.25 |
| PFDN | ≤ 0.25 |
| PKSA | ≤ 0.25 |
| TTMM | 8.23 |

— a collection of fitness landscapes (doi:10.1126/science.1257360)
